# Assay results taken from PubChem BioAssay (NCATS).
# Inconclusive means that the source gave no clear call. Such entries were picked first, then a sample of the others. For some of these results: Potencies of inconclusive entries are doubtful fits and often do not repeat. The source made the active and inactive calls. Unless noted, calls follow the shape of the dose curve; as a rule, active = well fitted curve in the direction sought with a large enough effect; inconclusive = small, poorly fitted or top-dose-only effect, or another doubt; inactive = no such curve, though single readings can be large; an effect the other way counts as inactive or inconclusive.
# Columns and labels:
# [1] = Primary qHTS for inhibitors of nuclear receptor binding SET domain protein 2 (NSD2) in an isogenic RCH-ACV NSD2 p.E1099K mutant (9B) (AID 1645876); conditions: activity change, negative = viability loss: at 44.9 µM (top of the series) unless noted; also: nearly all actives have a fitted effect of over 70% in size; also: potency is read from the fitted curve at half-maximal effect; as to activity change, negative = viability loss: % is scaled to controls: 0 for no effect and ±100 for the full control effect
# [2] = Primary fluorescence-based thiol-reactive (MSTI) qHTS assay for identification of artifact compounds. (AID 1845221); also: potency is read from the fitted curve at half-maximal effect;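 also: thiol-reactive compounds lower the probe fluorescence signal; nearly all actives have a fitted effect of over 65% in size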
# Summary of the method: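 In PBS pH 7.4 with 2% DMSO, each compound met 4 uM MSTI for one hour at ambient temperature, shielded from light, before fluorescence detection.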
# [3] = Primary redox qHTS assay for identification of artifact compounds. (AID 1845223); also: potency is read from the fitted curve at half-maximal effect
# Summary of the method: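 Amplex Red (25 uM) and HRP (250 mU/mL) in HBSS, with compounds for 15 min, then 250 uM DTT for 30 min, room temperature, dark. Fluorescence 525/598 nm read; normalized to DMSO and 10 uM DA3003; Hill fit.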
# SKOV3 = experiment: Primary qHTS to identify gynecologic anti-cancer compounds using libraries of approved drugs and bioactive compounds (AID 1345084); conditions: Gynecologic cancer cell panel viability, ATPlite luminescence, 48 h; series mostly up to 57.5 µM; also: nearly all actives have a fitted effect of over 55% in size; also: potency is read from the fitted curve at half-maximal effect; as to activity change, negative = cytotoxicity: % is scaled to controls: 0 for no effect and ±100 for the full control effect
# Summary of the method: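 Five-concentration response, 48 h; readout is ATP-driven luciferase luminescence.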
# [4] = Primary qHTS for inhibitors of nuclear receptor binding SET domain protein 2 (NSD2) in an RCH-ACV wild type WT cells (2C) (AID 1645877); conditions: activity change, negative = cell killing: at 44.9 µM (top of the series) unless noted; also: nearly all actives have a fitted effect of over 70% in size; also: potency is read from the fitted curve at half-maximal effect; as to activity change, negative = cell killing: % is scaled to controls: 0 for no effect and ±100 for the full control effect
# [5] = NCATS anti-infectives library activity on the primary C. elegans qHTS viability assay (AID 1745855; calls by dose curve)
# Summary of the method: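 Viability read-out is GFP fluorescence of PE254-GFP-FLuc C. elegans, measured by laser cytometry (488 nm) at day 0, 3 and 7. Ten L1 worms per well were incubated 7 days at 21 °C with compounds and bacterial capsules in S medium.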
# [6] = target: Luciferin 4-monooxygenase (Photinus pyralis) (UniProt P08659); experiment: Primary firefly luciferase (FLuc) qHTS assay for identification of artifact compounds. (AID 1845220); also: potency is read from the fitted curve at half-maximal effect; nearly all actives have a fitted effect of over 60% in size
# Summary of the method: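 Compounds sat 15 min at room temperature with 10 uM luciferin and 10 uM ATP (pH 7.6 Tris acetate). Firefly luciferase (10 nM final) was then added, and luminescence was read 5 min later. Data normalized to no-enzyme and DMSO controls were Hill-fitted.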
# Tags tell the direction and shape of the fitted curve.
compound,measurement,setting,value
CC(C)CC[C@@H](O)[C@](C)(O)[C@H]1CC[C@@]2(O)C3=CC(=O)[C@@H]4C[C@@H](O)[C@@H](O)C[C@]4(C)[C@H]3CC[C@]12C,Potency,[1],inactive
same,Potency,[2],inactive
same,Potency,[3],inactive
same,Potency,SKOV3,"inconclusive: 10 µM [rising, partial curve, poor fit]"
CCOC(=O)[C@H]1O[C@@H]1C(=O)N[C@@H](CC(C)C)C(=O)NCCC(C)C,Potency,[4],inactive
same,Potency,[5],inactive
same,Potency,[2],inactive
same,Potency,SKOV3,"inconclusive: 28.2 µM [rising, single point]"
COc1ccc(C2COc3cc(O)ccc3C2)c(O)c1OC (configuration not stated),Potency,[1],"inconclusive: 23 µM [inhibitor, single point]"
same,Potency,[4],"inconclusive: 29 µM [inhibitor, single point]"
same,Potency,[6],active: 19 µM
same,Potency,SKOV3,"inconclusive: 7.08 µM [cytotoxic, partial curve, poor fit]"
CC(=O)OCC(Cc1ccccc1)NC(=O)C(Cc1ccccc1)NC(=O)c1ccccc1 (configuration not stated),Potency,[3],inactive
same,Potency,SKOV3,inactive
C=C(C)C(C)C1OC23CC4(CO2)C(CCC2C5(C)CCC(OC6OCC(O)C(OC7OC(CO)C(O)C(OC8OCC(O)C(O)C8O)C7O)C6OC6OC(CO)C(O)C6O)C(C)(C)C5CCC24C)C3C(C)(O)C1OC(C)=O (configuration not stated),"activity change, negative = viability loss",[1],inactive: -26.7% [at 9.23 µM]
same,Potency,[4],"inconclusive: 6.9 µM [inhibitor, single point]"
same,"activity change, negative = cytotoxicity",SKOV3,inactive: 3.59% [at 11.6 µM]
C=C1CCC2C(C)(C(=O)OC)CCCC2(C)C1CCC1=CCOC1=O (configuration not stated),Potency,[4],"inconclusive: 20.1 µM [inhibitor, partial curve, poor fit]"
same,Potency,[3],inactive
same,Potency,SKOV3,inactive
CC(NC(=O)[C@H](Cc1ccccc1)NC(=O)OCc1ccccc1)C(=O)CF (some centres not stated),Potency,[1],"inconclusive: 20.5 µM [inhibitor, single point]"
same,Potency,[4],"inconclusive: 8.17 µM [inhibitor, partial curve, poor fit]"
same,Potency,SKOV3,"inconclusive: 39.8 µM [rising, single point]"
O=C(Cc1ccccc1)OC[C@H]1O[C@H](O[C@H]2O[C@H](CO)[C@@H](O)[C@H](O)[C@H]2O)[C@H](O)[C@@H](O)[C@@H]1O,Potency,[4],inactive
same,Potency,[2],"inconclusive: 4.62 µM [inhibitor, partial curve]"
same,Potency,SKOV3,inactive
CCNC(=O)[C@@H]1CCCN1C(=O)[C@H](CCCN=C(N)N)NC(=O)[C@H](CC(C)C)NC(=O)[C@@H](C)NC(=O)[C@H](Cc1ccc(O)cc1)NC(=O)[C@H](CO)NC(=O)[C@H](Cc1c[nH]c2ccccc12)NC(=O)[C@H](Cc1cnc[nH]1)NC(=O)[C@@H]1CCC(=O)N1,Potency,[3],"inconclusive: 11.6 µM [activator, partial curve]"
same,Potency,SKOV3,inactive
CCC(C)C1NC(=O)C2C(C)CCN2C(=O)C(CC(O)CO)OC(=O)CCNC(=O)C(C)N(C)C(=O)C(C(C)C)N(C)C1=O (configuration not stated),Potency,[4],"inconclusive: 4.83 µM [inhibitor, single point]"
same,Potency,[3],inactive
same,Potency,SKOV3,"inconclusive: 10 µM [rising, single point]"
CC1(C)CC[C@]2(C(=O)O[C@@H]3O[C@H](CO)[C@@H](O)[C@H](O)[C@H]3O)CC[C@]3(C)C(=CCC4[C@@]5(C)C[C@@H](O)[C@H](O)[C@](C)(C(=O)O)C5CC[C@]43C)C2C1O (some centres not stated),Potency,[1],inactive
same,Potency,SKOV3,"inconclusive: 3.16 µM [rising, partial curve, poor fit]"
CC1CCC2(C(=O)OC3OC(CO)C(O)C(O)C3O)CCC3(C(=O)O)C(=CCC4C5(C)CCC(OC6OC(C)C(O)C(O)C6O)C(C)(C)C5CCC43C)C2C1C (configuration not stated),Potency,[3],inactive
same,Potency,SKOV3,"inconclusive: 12.6 µM [rising, single point]"
CC(C)(OC1OC(CO)C(O)C(O)C1O)C1CCC(O)(CO)C2CC(O)C(C)(O)C2C1 (configuration not stated),Potency,[3],inactive
same,Potency,SKOV3,inactive
